From PubChem BioAssay AID1476 (National Center for Advancing Translational Sciences (NCATS), 2009)
Screen size: about 200,000 compounds; about 4,500 (2.2%) were called active. Inconclusive means that the source gave no clear call. Such entries were picked first, then a sample of the others. Calls come from the whole dose curve; as a rule, active = well fitted inhibition curve with a large enough effect; inconclusive = small, poorly fitted or top-dose-only effect, or effect the other way; inactive = flat fitted curve, though single readings scatter. A potency beside an inconclusive call is a rough fit, not a confirmed value.

These compounds were tested against Cruzipain (Trypanosoma cruzi) (UniProt P25779) (assay: qHTS Assay for Promiscuous and Specific Inhibitors of Cruzain (without detergent)). Conditions: purified cruzain, Z-FR-AMC fluorescence, no detergent.
In short: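 Purified cruzain at 1.5 nM, pre-incubated 15 min with compound at room temperature in 100 mM sodium acetate pH 5.5, 5 mM DTT, 0.00005% Triton X-100. Reaction started with 2 uM Z-FR-AMC; AMC fluorescence increase over 60 s gives rate.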
Note: nearly all actives have a fitted effect of over 40% in size.
Potency is the fitted concentration of half-maximal effect; tags give direction and shape of the fitted curve.
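Throughout, for max response, negative = inhibition: plate controls were enzyme without inhibitor for no effect and buffer without enzyme for full effect.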

UniProt P25779, sequence (P25779 whole entry, looked up): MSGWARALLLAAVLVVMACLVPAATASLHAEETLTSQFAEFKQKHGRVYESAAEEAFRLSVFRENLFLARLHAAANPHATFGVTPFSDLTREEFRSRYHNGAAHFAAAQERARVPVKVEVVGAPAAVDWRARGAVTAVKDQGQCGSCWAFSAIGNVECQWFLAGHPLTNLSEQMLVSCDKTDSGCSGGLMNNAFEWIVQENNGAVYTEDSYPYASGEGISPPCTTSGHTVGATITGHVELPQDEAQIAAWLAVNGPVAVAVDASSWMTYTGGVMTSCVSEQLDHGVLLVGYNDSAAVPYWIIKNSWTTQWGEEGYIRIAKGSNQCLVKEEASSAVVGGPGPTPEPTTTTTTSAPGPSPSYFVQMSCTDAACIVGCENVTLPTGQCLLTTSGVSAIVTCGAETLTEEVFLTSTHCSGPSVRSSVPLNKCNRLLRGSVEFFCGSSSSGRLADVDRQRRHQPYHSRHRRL

Row | SMILES | Potency | max response, negative = inhibition
1 | COc1ccc(C2CC(c3cccs3)=NN2C(=O)c2ccc(Br)o2)cc1 (centres undefined) | inconclusive: 31.6 µM [inhibitor, single point] | –
2 | CCOC(=O)C1CCCN(C(=O)c2ccc3c(c2)N(Cc2ccccc2)C(=O)c2ccccc2S3(=O)=O)C1 (centres undefined) | inconclusive: 39.8 µM [activator, single point] | –
3 | O=C(CSc1nc2ccccc2c(=O)n1NC(=O)c1ccccc1)c1ccc(Cl)cc1 | inconclusive: 25.1 µM [inhibitor, single point] | –
4 | CCOc1ccc(C2CC(=O)n3nc(-c4ccc(C)cc4)nc3S2)cc1OC (centres undefined) | – | inactive: 6.75%
5 | CC(C)Oc1c(Br)cc(Br)cc1/C=N/NC(N)=S | active: 0.158 µM | –
6 | O=C(Nc1ccc(NC(=O)c2cc3ccccc3o2)cc1)c1ccccc1 | active: 3.16 µM | –
7 | Cn1c(SCC(=O)N2c3ccccc3CCc3ccccc32)nnc1-c1cc2ccccc2cc1O | inconclusive: 20 µM [inhibitor, single point] | –
8 | Cc1ccc(C(=O)N2CCc3cc(CNS(=O)(=O)c4ccc(Cl)s4)ccc32)cc1 | inconclusive: 39.8 µM [inhibitor, single point] | –
9 | O=S(=O)(Cc1cc(Sc2ccccc2)nc(-c2ccccc2)n1)c1ccccc1 | inconclusive: 25.1 µM [inhibitor, single point] | –
10 | COc1cccc(NC(=O)CSc2nc3ccccc3cc2Cc2ccccc2)c1 | inconclusive: 39.8 µM [inhibitor, single point] | –
11 | Cn1c(N)c(C(=O)COC(=O)c2ccc(Cl)c(S(=O)(=O)N3CCCCC3)c2)c(=O)n(C)c1=O | inconclusive: 25.1 µM [activator, single point] | –
12 | Cc1nn(C)cc1C(C(=O)NC1CCCCC1)N(C(=O)Cc1cccs1)c1ccc(C(C)C)cc1 (centres undefined) | inconclusive: 25.1 µM [activator, partial curve] | –
13 | C/C=C1\C(=O)CC2C3CCC4=CC(=O)CC[C@]4(C)C3CC[C@]12C (some centres undefined) | inconclusive: 8.91 µM [inhibitor, single point] | –
14 | COc1ccc(C(C)=O)cc1CSc1nc2ccccc2c(=O)n1-c1cccc(C)c1 | inconclusive: 31.6 µM [inhibitor, single point] | –
15 | CN1/C(=C\C=N\NC(=O)c2ccc(O)cc2)C(C)(C)c2ccccc21 | active: 20 µM | –
16 | COc1ccc(-n2c(=O)cnc3cnc(Oc4cccc(Cl)c4)nc32)cc1 | inconclusive: 39.8 µM [activator, single point] | –
17 | COc1cccc(CNC(=O)c2cc3c(C)nc4ccccc4c3o2)c1 | inconclusive: 39.8 µM [activator, single point] | –
18 | Cc1ccc(NC(=O)[C@@H]2CCCN2S(=O)(=O)c2ccccc2C(F)(F)F)cc1S(=O)(=O)N1CCOCC1 | inconclusive: 39.8 µM [activator, single point] | –
19 | CCOc1ccccc1-c1nc(C(N)=O)c2[nH]c(=O)n(-c3cccc(C)c3)c2n1 | inconclusive: 39.8 µM [activator, single point] | –
20 | Cc1nn(C)c(C)c1CN(C)C(=O)c1cnn2c1NC(c1ccccc1)CC2C(F)(F)F (centres undefined) | inconclusive: 31.6 µM [activator, single point] | –
21 | Cc1ccc(S(=O)(=O)c2nc(-c3ccccc3F)oc2N2CCCCC2)cc1 | – | inactive: -13.3%
22 | Cc1ccc(-c2cc(C(=O)NCc3cnn(C)c3C)c3cc(Br)ccc3n2)cc1 | inconclusive: 25.1 µM [activator, partial curve] | –

Row | SMILES | Potency | max response, negative = inhibition
23 | COCCc1nn2c(=O)cc(COC(=O)c3ccc4c(c3)OCO4)nc2s1 | – | inactive: 5.53%
24 | O=C(NCc1cccc(Cl)c1)c1cc2c(s1)-c1ccccc1OC2 | inconclusive: 39.8 µM [inhibitor, single point] | –
25 | COc1ccc(Cl)cc1Nc1sc(C(=O)c2ccccc2)c(N)c1C(=O)Nc1ccccc1 | inconclusive: 39.8 µM [inhibitor, single point] | –
26 | CCC1=C(OC(=O)N(CC)CC)N2C(=O)OC(=NCc3ccccc3)[C@]2(C)[C@H]2C1=CC[C@H]1C(=O)NC(=O)[C@H]12 | inconclusive: 39.8 µM [activator, single point] | –
27 | CCc1ccc(N=C2NC(=O)CC(C(=O)Nc3ccc(OC)cc3)S2)cc1 (centres undefined) | inconclusive: 2 µM [activator, partial curve] | –
28 | COC(=O)c1sc(NC(=O)C2CCCO2)c(C(=O)OC)c1C (centres undefined) | inconclusive: 39.8 µM [activator, single point] | –
29 | Cc1ccc(CCNC(=O)c2ccc3c(c2)N(Cc2cccc(C)c2)C(=O)c2ccccc2S3(=O)=O)cc1 | inconclusive: 31.6 µM [inhibitor, single point] | –
30 | CC(C)c1ccc(NC(=O)c2cc3c(s2)-c2ccccc2SC3)cc1 | active: 10 µM | –
31 | CCCOCC(C)O (centres undefined) | – | inactive: -2.24%
32 | O=C(CSc1nc2[nH]ncc2c(=O)n1-c1ccccc1Br)NCc1ccco1 | inconclusive: 10 µM [inhibitor, single point] | –
33 | COc1ccc(-c2cc(C(F)F)n3ncc(C(=O)N4CCN(C(=O)c5ccco5)CC4)c3n2)cc1 | inconclusive: 31.6 µM [activator, single point] | –
34 | Cc1ccc(O)c(C(CC(=O)NCC2(c3ccccc3)CCCC2)c2ccccc2)c1 (centres undefined) | – | inactive: -11%
35 | O=C(Nc1ccc(Cl)cc1)Nc1nnc(CSCc2ccc(Cl)cc2)s1 | active: 5.01 µM | –
36 | Cc1nnc(SCC(=O)N/N=C/c2cn(-c3ccccc3)nc2-c2ccc(F)cc2)n1-c1ccccc1 | – | inactive: -3.1%
37 | CCOC(=O)c1[nH]c(C)c(CCC(=O)NCc2ccccc2)c1C | – | inactive: 10.3%
38 | Cc1cccn2c(=O)c3c(nc12)N1CCC(Cc2ccccc2)CC1C1(C3)C(=O)N(C)C(=O)N(C)C1=O (centres undefined) | inconclusive: 31.6 µM [activator, partial curve] | –
39 | Cc1ccc(-n2c(SCC(=O)N/N=C/c3c(C)nn(-c4ccccc4)c3C)nc3ccccc3c2=O)cc1 | – | inactive: -5.7%
40 | Cc1cc(-c2nc3cccnc3s2)ccc1NS(=O)(=O)c1ccc2c(c1)OCCO2 | inconclusive: 31.6 µM [inhibitor, single point] | –
41 | Cc1ccc(C)c(NC(=O)c2ccc3c(O)c(S(=O)(=O)c4ccc(Cl)cc4)c(=O)[nH]c3c2)c1 | – | inactive: 3.96%
42 | COC(=O)c1ccc(Oc2coc3cc(OCc4cnn(-c5ccccc5)c4)ccc3c2=O)cc1 | inconclusive: 31.6 µM [inhibitor, single point] | –
43 | Cc1cc2c(cc1S(=O)(=O)NCc1ccccc1Cl)OCCN2C | inconclusive: 0.004 µM [activator, full curve, poor fit] | –
44 | Cc1ccccc1-c1nc(CS(=O)(=O)CC(=O)N(C)C2CCCCC2)c(C)o1 | inconclusive: 39.8 µM [activator, single point] | –

Row | SMILES | Potency | max response, negative = inhibition
45 | CCOC(=O)C1=C(c2ccccc2)N=C2SCC(=O)N2C1c1ccc(OC)c(OC)c1 (centres undefined) | inconclusive: 39.8 µM [activator, single point] | –
46 | OC1CN=C2C=CC=CN2C1 (centres undefined) | – | inactive: -4.81%
47 | COc1ccc2cc(/C(C)=N/NC(=O)c3cc(-c4cccnc4)nc4ccccc34)ccc2c1 | – | inactive: -23%
48 | CCN(CC)C(=O)CSc1nc(N)c2c3c(sc2n1)CC(C)CC3 (centres undefined) | inconclusive: 39.8 µM [activator, single point] | –
49 | Cc1ccc2c(C(=O)CSc3ccccc3)c(C)[nH]c2c1 | active: 12.6 µM | –
50 | C=CCn1c(SCC(=O)Nc2c(C)n(C)n(-c3ccccc3)c2=O)nc2scc(-c3ccccc3)c2c1=O | inconclusive: 39.8 µM [activator, single point] | –
51 | Clc1ccccc1-c1cc(COc2ccc3ccccc3c2)no1 | inconclusive: 25.1 µM [inhibitor, single point] | –
52 | COc1cccc(N2CCN(C(=O)C(CCSC)NS(=O)(=O)c3ccc4c(c3)oc(=O)n4C)CC2)c1 (centres undefined) | inconclusive: 39.8 µM [activator, single point] | –
53 | Cc1ccc(NC(=O)Nc2nnc(N(CC(C)C)CC(C)C)s2)cc1Cl | – | inactive: -5.21%
54 | COc1ccc(N2CCN(C(=O)CCc3c(C)nn(-c4ccc(N5CCCC5)nn4)c3C)CC2)cc1 | – | inactive: -8.06%
55 | CS(=O)(=O)N1CCC2(CC1)CN(C(=O)Nc1ccccc1)C2 | – | inactive: -12.3%
56 | CCOC(=O)c1ccc(NC(=O)CCCc2nc(-c3ccccc3Cl)no2)cc1 | – | inactive: -8.64%
57 | CCOc1ccc(-c2cc(NC(=O)Nc3cccc(C(C)=O)c3)c(C(=O)OC)s2)cc1 | – | inactive: 20.5%
58 | COC(=O)c1[nH]c2ccc(C)cc2c1NC(=O)CN1CCCc2ccccc21 | inconclusive: 31.6 µM [inhibitor, single point] | –
59 | CCOC(=O)N1CCc2c(sc(NC(=O)c3ccc(S(=O)(=O)N4CCCC4)cc3)c2C#N)C1 | inconclusive: 39.8 µM [activator, single point] | –
60 | Cc1nc2ccccc2n1-c1nc(-c2ccco2)cc(C(F)(F)F)n1 | inconclusive: 3.98 µM [activator, single point] | –
61 | Cc1cc(Nc2cccc([N+](=O)[O-])c2)n2c(nc3ccccc32)c1C#N | inconclusive: 39.8 µM [inhibitor, single point] | –
62 | CCC1=NNc2cccc3c(OC)ccc1c23 | inconclusive: 39.8 µM [inhibitor, single point] | –
63 | CCOC(=O)c1cc(-c2ccccc2)n(-c2cccc(C(=O)Nc3ccc(F)c(F)c3)c2)c1C | active: 20 µM | –
64 | CCOC(=O)c1cnc(SC)nc1Oc1cccc(NC(=O)c2ccc(C)cc2)c1 | inconclusive: 7.94 µM [inhibitor, full curve] | –
